This is one part of the list. The main result of the screen is listed elsewhere. These columns were measured beside it and carry no call. For some assays here: The list favours compounds with an active or inconclusive main result. Words in brackets tell the shape of the fitted curve; partial curves, single points and poor fits give uncertain potencies.
Experiments:
[1] = qHTS drug screen for cell cycle checkpoint inhibitors in PARPi-resistant BRCA-mutant ovarian cancer cell lines. (AID 1963452); settings: PEO1/OlaR viability, CellTiter-Glo luminescence, 96 h
Outline: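 PEO1, PEO4 and PEO1/OlaR ovarian cancer cells, 600 per well, exposed 96 h at 37C to a dilution series. Viability read by CellTiter-Glo luminescence, normalized to DMSO and empty wells; activity summarized as Z-AUC.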

[2] = qHTS for identification of novel therapeutic agents for treatment of microphthalmiaassociated transcription factor (MiT) renal cell carcinoma (RCC) (AID 1963991); settings: CellTiter-Glo, 48 h; for z-score: stronger effect = lower value
Outline: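 Three TFE3-fusion RCC lines (UOK109, UOK124, UOK145), 500 cells/well in complete medium, were treated with MIPE 4.0 compounds for 48 hours at 37 C. Viability was by CellTiter-Glo luminescence, normalized to DMSO (100%) and empty wells (0%); curves fitted over 11 concentrations.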

[3] = measured here: PEO1 parental viability
[4] = TFE3-RCC viability, measured here: UOK124 cell viability
[5] = TFE3-RCC viability, measured here: UOK145 cell viability
[6] = TFE3-RCC UOK109 viability, measured here: UOK109 Z-AUC
[7] = TFE3-RCC viability, measured here: UOK124 Z-AUC
[8] = TFE3-RCC viability, measured here: UOK145 Z-AUC
Tags tell the direction and shape of the fitted curve.

| Compound | AC50 [1, 3] | AC50 ([1]; measured here: PEO4 viability) | AC50 [2, 4] | AC50 [2, 5] | z-score [2, 6] | z-score [2, 7] | z-score [2, 8] |
| --- | --- | --- | --- | --- | --- | --- | --- |
| O=C(Nc1cc(C(F)(F)F)cc(C(F)(F)F)c1)c1cc(Cl)ccc1O | 1.74 µM [falling, full curve] | 0.616 µM [falling, full curve] | 2.64 µM [falling, partial curve] | 0.833 µM [falling, full curve] | – | – | – |
| CC(C)C[C@H](NC(=O)CNC(=O)c1cc(Cl)ccc1Cl)B1OC(=O)CC(CC(=O)O)(C(=O)O)O1 (some centres not stated) | 0.0155 µM [falling, full curve] | 0.0123 µM [falling, full curve] | 1.87 µM [falling, full curve] | 0.0833 µM [falling, full curve] | – | – | – |
| COC(=O)Nc1nc2ccc(C(=O)c3ccc(F)cc3)cc2[nH]1 | 0.123 µM [falling, full curve] | 0.123 µM [falling, full curve] | 0.526 µM [falling, full curve] | 0.418 µM [falling, full curve] | – | – | – |
| Cc1c(NC(=O)OC[C@@H]2COCCN2)cn2ncnc(Nc3ccc4c(cnn4Cc4cccc(F)c4)c3)c12 | 8.71 µM [falling, partial curve, poor fit] | 2.19 µM [falling, partial curve] | 20.9 µM [falling, partial curve] | 5.26 µM [falling, partial curve] | – | – | – |
| COc1cc2nc(-c3ccc(N4CCN(C)CC4)cc3)nc(NCCN3CCOCC3)c2cc1OC | 24.5 µM [falling, single point] | 12.3 µM [falling, partial curve] | 0.469 µM [falling, full curve] | 0.166 µM [falling, full curve] | – | – | – |
| C=CC(=O)Nc1ccc2ncnc(Nc3ccc(OCc4cccc(F)c4)c(Cl)c3)c2c1 | 4.9 µM [falling, full curve] | 3.47 µM [falling, full curve] | 1.48 µM [falling, full curve] | 1.32 µM [falling, partial curve] | – | – | – |
| NC(=O)Nc1cc(-c2cccc(F)c2)sc1C(=O)N[C@H]1CCCNC1 | 0.174 µM [falling, full curve] | 0.347 µM [falling, full curve] | 0.526 µM [falling, full curve] | 0.662 µM [falling, full curve] | – | – | – |
| CN(C)CCN(C)C(=O)c1ccc(NC(=O)Nc2ccc(-c3nc(N4CCOCC4)c4ccn(CC(F)(F)F)c4n3)cc2)cc1 | 0.309 µM [falling, full curve] | 0.219 µM [falling, full curve] | 1.48 µM [falling, full curve] | 0.743 µM [falling, full curve] | – | – | – |
| COc1ccc(C=Cc2cc(OC)c(OC)c(OC)c2)cc1NC(=O)[C@H](N)CO | 0.0549 µM [falling, full curve] | 0.049 µM [falling, full curve] | 0.00332 µM [falling, full curve] | 0.00526 µM [falling, full curve] | – | – | – |
| N#CNC(=NCCCCCCOc1ccc(Cl)cc1)Nc1ccncc1 | 0.0069 µM [falling, full curve] | 0.0069 µM [falling, full curve] | 0.0148 µM [falling, full curve] | 0.0132 µM [falling, full curve] | – | – | – |
| C[C@@]12O[C@@H](C[C@]1(O)CO)n1c3ccccc3c3c4c(c5c6ccccc6n2c5c31)CNC4=O | 0.347 µM [falling, full curve, poor fit] | 0.174 µM [falling, partial curve, poor fit] | 9.35 µM [falling, partial curve] | 5.9 µM [falling, partial curve] | – | – | – |
| CC1=C(C(=O)Nc2cc3cn[nH]c3cc2F)C(c2ccc(Cl)cc2F)N=C(c2ccnc(Cl)c2)N1 (configuration not stated) | 13.8 µM [falling, partial curve, poor fit] | 27.5 µM [falling, single point] | 16.6 µM [falling, partial curve] | – | 1.23 | 0.335 | 1.01 |
| O=C(NC[C@H](O)CO)c1ccncc1Nc1ccc(I)cc1F | 3.09 µM [falling, partial curve] | 2.19 µM [falling, partial curve] | – | – | -1.31 | -0.211 | 0.297 |
| COc1cc(Nc2ncc(F)c(Nc3ccc4c(n3)NC(=O)C(C)(C)O4)n2)cc(OC)c1OC | 2.75 µM [falling, partial curve] | 3.89 µM [falling, partial curve, poor fit] | 0.935 µM [falling, full curve] | – | -0.418 | 0.289 | -0.99 |
| O=C(O)c1ccc(Nc2ncc3c(n2)-c2ccc(Cl)cc2C(c2c(F)cccc2F)=NC3)cc1 | 5.49 µM [falling, partial curve] | 0.219 µM [falling, full curve] | – | 14.8 µM [falling, partial curve] | -0.942 | 0.229 | 0.0351 |
| COc1cc([C@@H]2c3cc4c(cc3[C@H](O)[C@H]3COC(=O)[C@H]23)OCO4)cc(OC)c1OC | 0.049 µM [falling, full curve] | 0.0219 µM [falling, full curve, poor fit] | – | – | -2.58 | -3.38 | -1.44 |
| NS(=O)(=O)c1ccc(NC2=CC(=O)c3ccccc3C2=O)cc1 | 3.89 µM [falling, partial curve, poor fit] | 3.89 µM [falling, full curve] | 0.743 µM [falling, full curve] | – | -0.307 | -0.64 | 0.346 |
| Cc1cc(C(=O)NOCCO)c(Nc2ccc(I)cc2F)n(C)c1=O | 0.138 µM [falling, full curve] | 0.049 µM [falling, full curve] | – | 18.7 µM [falling, partial curve] | -2.35 | -0.323 | -0.584 |
| NC(=O)c1cccc(-c2cc(Nc3ccc(OC(F)(F)F)cc3)ncn2)c1 | 13.8 µM [falling, partial curve] | 19.5 µM [falling, single point] | 20.9 µM [falling, single point] | – | 0.275 | 0.407 | 0.48 |
| N#CC[C@H](C1CCCC1)n1cc(-c2ncnc3[nH]ccc23)cn1 | 24.5 µM [falling, single point] | 27.5 µM [falling, single point] | – | 18.7 µM [falling, partial curve, poor fit] | 0.386 | 0.599 | 0.171 |
| COc1cc(F)c(F)c(Nc2ccc(I)cc2F)c1NS(=O)(=O)C1(C[C@H](O)CO)CC1 | 0.871 µM [falling, full curve] | 7.76 µM [falling, partial curve] | – | – | 0.402 | 0.202 | 0.88 |
| CCCCC(C)(C)[C@H](O)C=C[C@H]1[C@H](O)CC(=O)[C@H]1CC=CCCCC(=O)O | 11 µM [falling, partial curve] | 24.5 µM [falling, single point] | – | 16.6 µM [falling, partial curve, poor fit] | 0.975 | 0.403 | 0.531 |
| CCc1c2c(nc3ccc(O)cc13)-c1cc3c(c(=O)n1C2)COC(=O)[C@]3(O)CC | 0.0087 µM [falling, full curve] | 0.0389 µM [falling, full curve] | 0.0526 µM [falling, full curve] | 0.059 µM [falling, full curve] | – | – | – |
| O=C(NOCC(O)CO)c1cc(Br)c(F)c(F)c1Nc1ccc(I)cc1F (configuration not stated) | 3.09 µM [falling, partial curve] | 8.71 µM [falling, partial curve] | – | 18.7 µM [falling, partial curve, poor fit] | -1.35 | -0.742 | -0.316 |
| COc1ccc(Nc2cc(-c3cnc(N)nc3)nc(N3CCOCC3)n2)cn1 | 1.95 µM [falling, full curve] | 12.3 µM [falling, partial curve] | 7.43 µM [falling, full curve] | 2.35 µM [falling, full curve] | – | – | – |
| C[N+](C)([O-])CCNc1ccc(NCC[N+](C)(C)[O-])c2c1C(=O)c1c(O)ccc(O)c1C2=O | 6.16 µM [falling, partial curve] | 12.3 µM [falling, partial curve] | – | 18.7 µM [falling, partial curve] | -0.234 | 1.66 | 0.198 |
| Cn1cnc2c(F)c(Nc3ccc(Br)cc3F)c(C(=O)NOCCO)cc21 | 0.616 µM [falling, full curve, poor fit] | 2.19 µM [falling, full curve] | 0.0662 µM [falling, partial curve, poor fit] | – | -1.79 | 0.0443 | 0.561 |
| Cc1cc(Nc2ncc3c(n2)N(C)C(=O)N(c2cc(NC(=O)c4cccc(C(F)(F)F)c4)ccc2C)C3)n(C)n1 | 0.195 µM [falling, full curve] | 2.75 µM [falling, partial curve] | 0.526 µM [falling, full curve] | 0.662 µM [falling, full curve] | – | – | – |

— PubChem BioAssay (NCATS)
